The chains are these.
T1: RBFOX1 RRM (Homo sapiens, UniProt Q9NWB1 109-208)
T1 sequence: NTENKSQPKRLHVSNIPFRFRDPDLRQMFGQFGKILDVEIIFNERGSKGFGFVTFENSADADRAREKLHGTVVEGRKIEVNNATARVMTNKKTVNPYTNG

B1: GGUGCGA (DNA:RNA)
RNA: GGGAGACCGGAAUUCAGAUUGUCCGGUGCGAUUAAAUCCCGUCGUAGCCACCA
DNA 1: CAATCTGAATTCCGGTCTCCC
DNA 2: TGGTGGCTACGACGGGATT
B2: UGGGACA (DNA:RNA)
RNA: B1 RNA with G25U, U27G, C29A, G30C
DNA 1: CAATCTGAATTCCGGTCTCCC
DNA 2: TGGTGGCTACGACGGGATT
B3: UACCCCG (DNA:RNA)
RNA: B1 RNA with G25U, G26A, U27C, G28C, G30C, A31G
DNA 1: CAATCTGAATTCCGGTCTCCC
DNA 2: TGGTGGCTACGACGGGATT
B4: GGACCAC (DNA:RNA)
RNA: B1 RNA with U27A, G28C, G30A, A31C
DNA 1: CAATCTGAATTCCGGTCTCCC
DNA 2: TGGTGGCTACGACGGGATT
B5: GCACUUA (DNA:RNA)
RNA: B1 RNA with G26C, U27A, G28C, C29U, G30U
DNA 1: CAATCTGAATTCCGGTCTCCC
DNA 2: TGGTGGCTACGACGGGATT
B6: CCGAUGA (DNA:RNA)
RNA: B1 RNA with G25C, G26C, U27G, G28A, C29U
DNA 1: CAATCTGAATTCCGGTCTCCC
DNA 2: TGGTGGCTACGACGGGATT
B7: ACCCUAA (DNA:RNA)
RNA: B1 RNA with G25A, G26C, U27C, G28C, C29U, G30A
DNA 1: CAATCTGAATTCCGGTCTCCC
DNA 2: TGGTGGCTACGACGGGATT
B8: ACCUGAU (DNA:RNA)
RNA: GGGAGACCGGAAUUCAGAUUGUCCACCUGAUUUAAAUCCCGUCGUAGCCACCA
DNA 1: CAATCTGAATTCCGGTCTCCC
DNA 2: TGGTGGCTACGACGGGATT
B9: CAGAAUG (DNA:RNA)
RNA: GGGAGACCGGAAUUCAGAUUGUCCCAGAAUGUUAAAUCCCGUCGUAGCCACCA
DNA 1: CAATCTGAATTCCGGTCTCCC
DNA 2: TGGTGGCTACGACGGGATT
B10: GCUGGCG (DNA:RNA)
RNA: B1 RNA with G26C, C29G, G30C, A31G
DNA 1: CAATCTGAATTCCGGTCTCCC
DNA 2: TGGTGGCTACGACGGGATT
B11: CAUAUGA (DNA:RNA)
RNA: B9 RNA with G27U, A29U, U30G, G31A
DNA 1: CAATCTGAATTCCGGTCTCCC
DNA 2: TGGTGGCTACGACGGGATT
B12: ACUGUAC (DNA:RNA)
RNA: B8 RNA with C27U, U28G, G29U, U31C
DNA 1: CAATCTGAATTCCGGTCTCCC
DNA 2: TGGTGGCTACGACGGGATT
B13: CAGGUUG (DNA:RNA)
RNA: B9 RNA with A28G, A29U
DNA 1: CAATCTGAATTCCGGTCTCCC
DNA 2: TGGTGGCTACGACGGGATT
B14: GUGUCCA (DNA:RNA)
RNA: B1 RNA with G26U, U27G, G28U, G30C
DNA 1: CAATCTGAATTCCGGTCTCCC
DNA 2: TGGTGGCTACGACGGGATT
B15: CGAAACC (DNA:RNA)
RNA: B9 RNA with A26G, G27A, U30C, G31C
DNA 1: CAATCTGAATTCCGGTCTCCC
DNA 2: TGGTGGCTACGACGGGATT
B16: UCACUCA (DNA:RNA)
RNA: B8 RNA with A25U, C27A, U28C, G29U, A30C, U31A
DNA 1: CAATCTGAATTCCGGTCTCCC
DNA 2: TGGTGGCTACGACGGGATT
B17: CACAACG (DNA:RNA)
RNA: B9 RNA with G27C, U30C
DNA 1: CAATCTGAATTCCGGTCTCCC
DNA 2: TGGTGGCTACGACGGGATT
B18: UGGUUAU (DNA:RNA)
RNA: B8 RNA with A25U, C26G, C27G, G29U
DNA 1: CAATCTGAATTCCGGTCTCCC
DNA 2: TGGTGGCTACGACGGGATT
B19: AAAAACA (DNA:RNA)
RNA: B9 RNA with C25A, G27A, U30C, G31A
DNA 1: CAATCTGAATTCCGGTCTCCC
DNA 2: TGGTGGCTACGACGGGATT
B20: CUCGGAC (DNA:RNA)
RNA: B8 RNA with A25C, C26U, U28G, U31C
DNA 1: CAATCTGAATTCCGGTCTCCC
DNA 2: TGGTGGCTACGACGGGATT

Where a chain is given by its changes, count along the chain named. The list shows a part of the results.

The test has as its target T1, RBFOX1 RRM. The test can be described thus: EMSA; HiTS-Eq, 1 nM pool, 10 min; buffer printed only for the single-RNA assays: 10 mM Tris pH 7.5, 150 mM NaCl, 3.4 mM EDTA, 0.001% NP-40, 30 C. The following applies: tags: His6 N-terminal (pET28a); label: 5' 32P. Put shortly:
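Purified RbFox RRM, wild type or mutant, was incubated for 10 min in 50 µL with 1 nM of a 5′-radiolabelled RNA pool carrying 7 randomized nucleotides, whose flanks were annealed to DNA oligonucleotides, over a series of increasing protein concentrations. Unbound RNA was resolved on 8% native PAGE, cut out, reverse-transcribed, barcoded by PCR and sequenced on an Illumina HiSeq 2500. Relative association constants were derived from changes in read counts for each RNA species versus the control reaction and normalised to the cognate motif.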
On the technique in general: Mobility shift assays separate free from complexed probe on a gel.
Turning to B1, the binding signal is 0.00929 KA relative to UGCAUGU.

For B2, the binding signal was 0.0078 KA relative to UGCAUGU.

Turning to B3, the binding signal was 0.00502 KA relative to UGCAUGU.

Regarding B4, the binding signal is 0.00949 KA relative to UGCAUGU.

On to B5, for which the binding signal is 0.00566 KA relative to UGCAUGU.

As for B6, the binding signal was 0.016 KA relative to UGCAUGU.

B7: the binding signal was 0.00202 KA relative to UGCAUGU.

As for B8, the binding signal is 0.00655 KA relative to UGCAUGU.

As for B9, the binding signal is 0.0213 KA relative to UGCAUGU.

As to B10, the binding signal is 0.0219 KA relative to UGCAUGU.

With B11, the binding signal is 0.00465 KA relative to UGCAUGU.

As for B12, the binding signal is 0.00505 KA relative to UGCAUGU.

Turning to B13, the binding signal was 0.0146 KA relative to UGCAUGU.

For B14, the binding signal is 0.00816 KA relative to UGCAUGU.

In the case of B15, the binding signal is 0.00426 KA relative to UGCAUGU.

As to B16, the binding signal is 0.003 KA relative to UGCAUGU.

For B17, the binding signal was 0.000632 KA relative to UGCAUGU.

For the molecule B18, the binding signal was 0.0132 KA relative to UGCAUGU.

For the molecule B19, the binding signal is 0.000576 KA relative to UGCAUGU.

For B20, the binding signal is 0.00769 KA relative to UGCAUGU.
